# The whole screen tested about 310,000 compounds, of which about 11,000 (3.5%) were called active. Inconclusive means that the source gave no clear call. Such entries were picked first, then a sample of the others. Calls follow the shape of the dose curve; as a rule, active = well fitted inhibition curve with a large enough effect; inconclusive = small, poorly fitted or top-dose-only effect, or effect the other way; inactive = flat fitted curve, though single readings scatter. No potency is given beside an inconclusive call; the fits are too rough.
# Experiment: VP16 counterscreen qHTS for inhibitors of ROR gamma transcriptional activity;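 also: Gal4-VP16 expression switched on by copper sulfate through the metallothionein promoter; nearly all actives have a fitted effect of over 50% in size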
# Conditions: Drosophila S2 Gal4-VP16 UAS-luciferase, luminescence, 20 h; series mostly up to 53.6 µM
# Potency is read from the fitted curve at half-maximal effect; tags tell the direction and shape of the fitted curve.
row,SMILES,Potency
1,Cc1ccccc1NC(=S)NC(=O)C1CCCCC1,"inconclusive [inhibitor, full curve]"
2,COc1ccc(CN(CCC(c2ccccc2)c2ccco2)C(=O)c2ccco2)cc1 (stereo unspecified),inactive
3,O=C(NCCC1CC1(Cl)Cl)Nc1ccccc1 (stereo unspecified),"inconclusive [activator, single point]"
4,Cc1csc(NC(=O)C2CCCN(S(=O)(=O)c3ccc(Br)s3)C2)n1 (stereo unspecified),"inconclusive [inhibitor, single point]"
5,Cc1ccnc(SC2CC(=O)N(c3ccc(Br)cc3)C2=O)n1 (stereo unspecified),"inconclusive [inhibitor, single point]"
6,Cc1ccc(NC(=O)c2ccc(OC(=O)c3ccco3)cc2)cc1,inactive
7,COc1ccc2oc(=O)c(C(=O)NCc3ccco3)cc2c1,"inconclusive [activator, single point]"
8,O=C(Nc1nc2ccccc2[nH]1)C1CCCC1,"inconclusive [inhibitor, partial curve, poor fit]"
9,Oc1ccccc1-c1cc(-c2ccc3c(c2)OCCO3)n[nH]1,"inconclusive [inhibitor, single point]"
10,CC(=O)c1ccc(NC(=O)CN2CCCC2)cc1,"inconclusive [activator, partial curve]"
11,CCC(=O)N1CCN(c2ccc(NC(=S)NC(=O)COc3ccccc3)cc2)CC1,active: 12.6 µM
12,Cc1cccc(NC(=O)Cn2c(O)c(N=NC(N)=S)c3ccccc32)c1,"inconclusive [inhibitor, single point]"
13,O=C(O)c1ccccc1SC1CC(=O)N(c2ccc3c(c2)OCO3)C1=O (stereo unspecified),"inconclusive [inhibitor, single point]"
14,O=C(C#Cc1ccccc1)Nc1ccc(F)cc1,inactive
15,Clc1cccc(Cl)c1C1Nc2cccc3cccc(c23)N1,active: 3.98 µM
16,CCOc1ccc(C2C(C(C)=O)=C(O)C(=O)N2CCc2c[nH]c3ccccc23)cc1 (stereo unspecified),inactive
17,O=C(OCCOCCN=C1NS(=O)(=O)c2ccccc21)c1ccccc1Br,inactive
18,Cc1cccc(C)c1-n1c(C)cc(/C=N\Nc2ccc([N+](=O)[O-])cn2)c1C,inactive
19,O=C(c1ccc(N2CCCCC2)c([N+](=O)[O-])c1)N1CCN(c2ccccn2)CC1,"inconclusive [inhibitor, partial curve]"
20,C/C(=N\NC(=O)c1cc(C)nc2ccccc12)c1ccncc1,inactive
21,CCOC(=O)c1sc(NC(=O)/C=C/c2cnn(CC)c2C)c(C(=O)OCC)c1C,"inconclusive [inhibitor, partial curve, poor fit]"
22,CCC(=O)N1CCN(c2ccc(NC(=O)c3ccc4c(c3)OCCO4)cc2)CC1,inactive
23,CC(=O)n1nc(-c2ccccc2)nc1NCc1ccc(N(C)C)cc1,"inconclusive [activator, single point]"
24,COC(=O)C1=C(C)N(Cc2ccccc2)C(=S)N[C@H]1c1cccc(C(F)(F)F)c1,active: 10 µM
25,CCOC(=O)C(=Cc1ccc(Br)cc1)C(=O)OCC,"inconclusive [inhibitor, single point]"
26,Cc1ccc(OCC(=O)Nc2ccccc2Sc2ccc(Cl)cc2)c([N+](=O)[O-])n1,"inconclusive [inhibitor, single point]"

row,SMILES,Potency
1,CCOc1ccc(N(CC(=O)N/N=C/c2ccccn2)S(=O)(=O)c2ccc(Cl)cc2)cc1,"inconclusive [inhibitor, single point]"
2,CC(C)(C)OC(=O)N/N=C\c1ccc([N+](=O)[O-])s1,"inconclusive [inhibitor, single point]"
3,COc1ccc2c(c1)-c1nc(N)sc1CC2,inactive
4,COc1ccccc1/C=N/Nc1nncc2ccccc12,active: 3.98 µM
5,CCn1c(Cn2nnc(-c3ccccc3)n2)nnc1SCC(=O)Nc1ccc(C(C)=O)cc1,inactive
6,O=c1cc(O)c2sc3nc4c(c(C(F)(F)F)c3c2[nH]1)CCCCC4,inactive
7,Cn1c2c(c(=O)c3ccccc31)CCC(C)(C)O2,inactive
8,C/C(O)=C(\C#N)P(=O)(c1ccccc1)c1ccccc1,"inconclusive [inhibitor, single point]"
9,COc1cc2ccccc2cc1C(=O)Nc1ccc(C)cc1,"inconclusive [activator, single point]"
10,O=C1C(Nc2cccc(O)c2)=C(N2CCCCC2)C(=O)c2ccccc21,"inconclusive [inhibitor, single point]"
11,COc1cccc(/C=N/Nc2nccnc2Cl)c1O,active: 7.08 µM
12,COc1ccc(-c2[nH]ncc2Oc2ccccc2OC)c(O)c1,"inconclusive [inhibitor, single point]"
13,COc1ccccc1NC(=O)Cn1c(=O)n(C)c(=O)c2sc3c(c21)COC(C)(C)C3,inactive
14,Cc1cc(C(=O)Nc2cccc(C(=O)O)c2)oc1C,"inconclusive [inhibitor, partial curve]"
15,C=CCNC(=S)N/N=C/c1ccc(C)c([N+](=O)[O-])c1,active: 4.47 µM
16,CN1CCC/C1=C/C=C1\SC(=S)NC1=O,"inconclusive [activator, partial curve]"
17,COc1ccccc1-c1c(C)[nH]n2c(=O)c(Cc3ccccc3)c(C)nc12,active: 11.2 µM
18,CC(C)(C)c1ccc(NC(=O)N2CCCN(c3c(Cl)cncc3Cl)CC2)cc1,"inconclusive [inhibitor, partial curve]"
19,COc1cc(CCNC(=O)c2ccccc2NC(=O)C2=C(C)OCCS2)cc(OC)c1OC,inactive
20,COCCCn1c(SCC(=O)NC2CCCCC2)nc2ccccc2c1=O,inactive
21,Cc1ccccc1NC(=O)CCC(=O)OCC(=O)c1ccc(-c2ccccc2)cc1,active: 10 µM
22,O=C(c1cc(-c2ccccc2Cl)nc2ccccc12)N1CCOCC1,inactive
23,CNC(=S)Nc1cccc(-c2cnc3ccccc3n2)c1,inactive
24,CC(C)Cn1c2ccccc2c2cc(C(=O)O)ccc21,inactive
25,COc1cc(NC(=S)N2CCc3ccccc3C2)cc(OC)c1,"inconclusive [inhibitor, single point]"
